# Measured values as given in the supplement of paper PMC8728848.
# The list shows a part of the results.
# B1: Dectin-1 (Mus musculus), Q6QLQ4 (protein)
# chain: EYGHNSGRNPEEKDNFLSRNKENHKPTESSLDEKVAPSKASQTTGGFSQPCLPNWIMHGKSCYLFSFSGNSWYGSKRHCSQLGAHLLKIDNSKEFEFIESQTSSHRINAFWIGLSRNQSEGPWFWEDGSAFFPNSFQVRNTAPQESLLHNCVWIHGSEVYNQICNTSSYSICEKEL
# Experiments:
# Test in all cases: glycan array binding signal (z-score within array); higher = stronger binding
# Conditions in all cases: glycan notation: IUPAC condensed, linker removed
# [1] = target: Glc(b1-3)Glc(b1-3)Glc(b1-3)Glc(b1-3)Glc(b1-3)Glc(b1-3)[Glc(b1-6)]Glc(b1-3)Glc(b1-3)Glc
# Method in brief: (§1)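 The binding signal is a Z-score computed within each array and averaged over linkers. Arrays of the same protein sequence at different concentrations or buffers were also averaged together. Data originate from 3228 arrays in the Consortium for Functional Glycomics database, kept only where the protein sequence was available.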
# [2] = target: Glc(b1-3)Glc(b1-3)Glc(b1-3)Glc(b1-3)[Glc(b1-6)]Glc(b1-3)Glc(b1-3)Glc(b1-3)Glc(b1-3)Glc
# Method in brief: as §1
# [3] = target: Glc(b1-3)Glc(b1-3)Glc(b1-3)[Glc(b1-6)]Glc(b1-3)Glc(b1-3)Glc(b1-3)Glc(b1-3)[Glc(b1-6)]Glc(b1-3)Glc
# Method in brief: as §1
# [4] = target: Glc(b1-3)Glc(b1-3)[Glc(b1-6)]Glc(b1-3)Glc(b1-3)Glc(b1-3)Glc(b1-3)Glc(b1-3)Glc(b1-3)Glc
# Method in brief: as §1
# [5] = target: Glc(b1-3)Glc(b1-4)Glc
# Method in brief: as §1
# [6] = target: Glc(b1-3)Glc(b1-4)Glc(b1-4)Glc
# Method in brief: as §1
# [7] = target: Glc(b1-3)Glc(b1-4)Glc(b1-6)Glc(b1-4)Glc
# Method in brief: as §1
# [8] = target: Glc(b1-3)[Glc(b1-6)]Glc(a1-3)Glc(b1-3)[Glc(b1-6)]Glc
# Method in brief: as §1
# [9] = target: Glc(b1-3)[Glc(b1-6)]Glc(b1-3)Glc(b1-3)Glc(b1-3)Glc(b1-3)Glc(b1-3)Glc(b1-3)Glc
# Method in brief: as §1
# [10] = target: Glc(b1-4)Glc
# Method in brief: as §1
# [11] = target: Glc(b1-4)Glc(b1-3)Glc
# Method in brief: as §1
# [12] = target: Glc(b1-4)Glc(b1-3)Glc(b1-4)Glc
# Method in brief: as §1
# [13] = target: Glc(b1-4)Glc(b1-4)Glc
# Method in brief: as §1
# [14] = target: Glc(b1-4)Glc(b1-4)Glc(b1-3)Glc
# Method in brief: as §1
# [15] = target: Glc(b1-4)Glc(b1-4)Glc(b1-3)Glc(b1-4)Glc(b1-4)Glc(b1-3)Glc
# Method in brief: as §1
# [16] = target: Glc(b1-4)Glc(b1-4)Glc(b1-4)Glc
# Method in brief: as §1
# [17] = target: Glc(b1-4)Glc(b1-4)Glc(b1-4)Glc(b1-3)Glc
# Method in brief: as §1
# [18] = target: Glc(b1-4)Glc(b1-4)Glc(b1-4)Glc(b1-4)Glc
# Method in brief: as §1
# [19] = target: Glc(b1-4)Glc(b1-4)Glc(b1-4)Glc(b1-4)Glc(b1-4)Glc
# Method in brief: as §1
# [20] = target: Glc(b1-4)Glc(b1-4)Glc(b1-4)Glc(b1-4)Glc(b1-4)Glc(b1-4)Glc
# Method in brief: as §1
# [21] = target: Glc(b1-4)Glc(b1-4)Glc(b1-4)Glc(b1-4)Glc(b1-4)Glc(b1-4)Glc(b1-4)Glc
# Method in brief: as §1
# [22] = target: Glc(b1-4)Glc(b1-4)Glc(b1-4)Glc(b1-4)Glc(b1-4)Glc(b1-4)Glc(b1-4)Glc(b1-4)Glc
# Method in brief: as §1
# [23] = target: Glc(b1-4)Glc(b1-4)Glc(b1-4)Glc(b1-4)Glc(b1-4)Glc(b1-4)Glc(b1-4)Glc(b1-4)Glc(b1-4)Glc
# Method in brief: as §1
# [24] = target: Glc(b1-4)Glc(b1-4)Glc(b1-4)Glc(b1-4)Glc(b1-4)Glc(b1-4)Glc(b1-4)Glc(b1-4)Glc(b1-4)Glc(b1-4)Glc
# Method in brief: as §1
# [25] = target: Glc(b1-4)Glc(b1-4)Glc(b1-4)Glc(b1-4)Glc(b1-4)Glc(b1-4)Glc(b1-4)Glc(b1-4)Glc(b1-4)Glc(b1-4)Glc(b1-4)Glc
# Method in brief: as §1
# [26] = target: Glc(b1-4)Glc(b1-4)Glc(b1-4)Glc(b1-4)Glc(b1-4)Glc(b1-4)Glc(b1-4)Glc(b1-4)Glc(b1-4)Glc(b1-4)Glc(b1-4)Glc(b1-4)Glc
# Method in brief: as §1
# [27] = target: Glc(b1-6)Glc
# Method in brief: as §1
# [28] = target: Glc(b1-6)Glc(b1-6)Glc
# Method in brief: as §1
# [29] = target: Glc(b1-6)Glc(b1-6)Glc(b1-6)Glc
# Method in brief: as §1
# [30] = target: Glc(b1-6)Glc(b1-6)Glc(b1-6)Glc(b1-6)Glc
# Method in brief: as §1
# [31] = target: Glc(b1-6)Glc(b1-6)Glc(b1-6)Glc(b1-6)Glc(b1-6)Glc
# Method in brief: as §1
# [32] = target: Glc(b1-6)Glc(b1-6)Glc(b1-6)Glc(b1-6)Glc(b1-6)Glc(b1-6)Glc
# Method in brief: as §1
# [33] = target: Glc(b1-6)Glc(b1-6)Glc(b1-6)Glc(b1-6)Glc(b1-6)Glc(b1-6)Glc(b1-6)Glc
# Method in brief: as §1
# [34] = target: Glc(b1-6)Glc(b1-6)Glc(b1-6)Glc(b1-6)Glc(b1-6)Glc(b1-6)Glc(b1-6)Glc(b1-6)Glc
# Method in brief: as §1
# [35] = target: Glc(b1-6)Glc(b1-6)Glc(b1-6)Glc(b1-6)Glc(b1-6)Glc(b1-6)Glc(b1-6)Glc(b1-6)Glc(b1-6)Glc
# Method in brief: as §1
# [36] = target: Glc(b1-6)Glc(b1-6)Glc(b1-6)Glc(b1-6)Glc(b1-6)Glc(b1-6)Glc(b1-6)Glc(b1-6)Glc(b1-6)Glc(b1-6)Glc
# Method in brief: as §1
# [37] = target: Glc(b1-6)Glc(b1-6)Glc(b1-6)Glc(b1-6)Glc(b1-6)Glc(b1-6)Glc(b1-6)Glc(b1-6)Glc(b1-6)Glc(b1-6)Glc(b1-6)Glc
# Method in brief: as §1
# [38] = target: Glc(b1-6)Glc(b1-6)Glc(b1-6)Glc(b1-6)Glc(b1-6)Glc(b1-6)Glc(b1-6)Glc(b1-6)Glc(b1-6)Glc(b1-6)Glc(b1-6)Glc(b1-6)Glc
# Method in brief: as §1
# [39] = target: Man(b1-4)Man(b1-4)Man(b1-4)Man
# Method in brief: as §1
# [40] = target: Man(b1-4)Man(b1-4)Man(b1-4)Man(b1-4)Man
# Method in brief: as §1
# [41] = target: Man(b1-4)Man(b1-4)Man(b1-4)Man(b1-4)Man(b1-4)Man
# Method in brief: as §1
# [42] = target: Xyl(b1-4)Xyl(b1-4)Xyl(b1-4)Xyl(b1-4)Xyl
# Method in brief: as §1
# [43] = target: Xyl(b1-4)Xyl(b1-4)Xyl(b1-4)Xyl(b1-4)Xyl(b1-4)Xyl
# Method in brief: as §1
binder,measurement,setting,value
B1,glycan array binding signal (z-score),[1],-0.182
same,glycan array binding signal (z-score),[2],-0.182
same,glycan array binding signal (z-score),[3],-0.182
same,glycan array binding signal (z-score),[4],-0.182
same,glycan array binding signal (z-score),[5],-0.182
same,glycan array binding signal (z-score),[6],-0.182
same,glycan array binding signal (z-score),[7],-0.182
same,glycan array binding signal (z-score),[8],-0.182
same,glycan array binding signal (z-score),[9],-0.182
same,glycan array binding signal (z-score),[10],-0.167
same,glycan array binding signal (z-score),[11],-0.068
same,glycan array binding signal (z-score),[12],-0.182
same,glycan array binding signal (z-score),[13],-0.157
same,glycan array binding signal (z-score),[14],-0.116
same,glycan array binding signal (z-score),[15],-0.124
same,glycan array binding signal (z-score),[16],-0.135
same,glycan array binding signal (z-score),[17],-0.001
same,glycan array binding signal (z-score),[18],-0.138
same,glycan array binding signal (z-score),[19],-0.148
same,glycan array binding signal (z-score),[20],-0.159
same,glycan array binding signal (z-score),[21],-0.125
same,glycan array binding signal (z-score),[22],-0.151
same,glycan array binding signal (z-score),[23],-0.178
same,glycan array binding signal (z-score),[24],-0.169
same,glycan array binding signal (z-score),[25],-0.149
same,glycan array binding signal (z-score),[26],-0.156
same,glycan array binding signal (z-score),[27],-0.167
same,glycan array binding signal (z-score),[28],-0.141
same,glycan array binding signal (z-score),[29],-0.125
same,glycan array binding signal (z-score),[30],-0.14
same,glycan array binding signal (z-score),[31],-0.178
same,glycan array binding signal (z-score),[32],-0.149
same,glycan array binding signal (z-score),[33],-0.13
same,glycan array binding signal (z-score),[34],-0.149
same,glycan array binding signal (z-score),[35],-0.165
same,glycan array binding signal (z-score),[36],-0.13
same,glycan array binding signal (z-score),[37],-0.141
same,glycan array binding signal (z-score),[38],-0.156
same,glycan array binding signal (z-score),[39],-0.038
same,glycan array binding signal (z-score),[40],-0.172
same,glycan array binding signal (z-score),[41],-0.154
same,glycan array binding signal (z-score),[42],-0.143
same,glycan array binding signal (z-score),[43],-0.14
